This is an account of results in patent publication US20250034239A1 (LINNO PHARMACEUTICALS, published 2025).

For test [1], the target named is T1, human properdin (human, UniProt P27918 28-469, biotinylated).
T1 construct: Recombinant, made in house; tag not described; In the hemolysis assays the target is the properdin of human serum; also called human properdin-biotin; biotin human Properdin
T1 sequence (looked up): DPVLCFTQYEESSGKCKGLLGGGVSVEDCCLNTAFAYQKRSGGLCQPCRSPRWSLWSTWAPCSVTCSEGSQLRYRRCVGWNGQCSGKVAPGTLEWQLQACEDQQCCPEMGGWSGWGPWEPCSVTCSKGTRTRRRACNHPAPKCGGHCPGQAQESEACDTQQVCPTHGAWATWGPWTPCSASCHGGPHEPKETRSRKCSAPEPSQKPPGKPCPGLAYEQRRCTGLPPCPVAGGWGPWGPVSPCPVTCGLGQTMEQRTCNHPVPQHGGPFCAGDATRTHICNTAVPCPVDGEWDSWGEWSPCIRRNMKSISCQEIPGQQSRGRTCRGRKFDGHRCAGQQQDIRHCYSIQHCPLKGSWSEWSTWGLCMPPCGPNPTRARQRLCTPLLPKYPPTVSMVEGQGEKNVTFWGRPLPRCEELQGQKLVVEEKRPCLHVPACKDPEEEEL
Put plainly: target-binding ELISA on human properdin.

Test [2] concerns the target T2, mouse properdin (mouse, UniProt P11680 23-464, biotinylated).
T2 construct: Recombinant, made in house; In the hemolysis assays the target is the properdin of mouse serum; also called mouse properdin-biotin; mouse FP
T2 sequence (looked up): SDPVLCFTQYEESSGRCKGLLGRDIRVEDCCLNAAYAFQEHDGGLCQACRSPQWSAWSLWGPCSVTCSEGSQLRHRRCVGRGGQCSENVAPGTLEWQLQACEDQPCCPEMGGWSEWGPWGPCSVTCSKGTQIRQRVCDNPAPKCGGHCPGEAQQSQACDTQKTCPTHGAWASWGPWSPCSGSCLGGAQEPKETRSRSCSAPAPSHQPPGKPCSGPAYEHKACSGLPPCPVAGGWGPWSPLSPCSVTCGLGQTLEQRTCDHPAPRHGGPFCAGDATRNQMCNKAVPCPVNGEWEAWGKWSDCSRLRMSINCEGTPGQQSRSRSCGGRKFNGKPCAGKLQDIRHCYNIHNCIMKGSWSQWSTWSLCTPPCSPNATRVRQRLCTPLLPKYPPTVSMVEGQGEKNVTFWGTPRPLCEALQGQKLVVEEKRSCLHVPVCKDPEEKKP
Briefly: target-binding ELISA on mouse properdin.

Test [3] has as its target T1, human properdin. Briefly: ELISA on biotinylated properdin captured on streptavidin, anti-human IgG Fc-HRP.
For test [4], the target named is T2, mouse properdin. The test is described as above.

B1: SLN12025 (Fc-SLN7152-(G4S)3-SLN7160) (Fc fusion)
chain: [human IgG4 Fc with S228P (EU numbers) not written out]GGGGSGGGSSGGGGSDVQLVESGGGSVQVGGSLRLSCVDTSYTYTHYCMGWFRQAPGKEREGVAVMTTDGWTRYADSVKGRFIISKDNAKNTLYLQMNSLKLEDTAMYYCATNPWDSCTTGISTPSTFRTWGQGTQVTVSSGGGGSGGGGSGGGGSHVQLVESGGGSVQSGGSLRLSCAASAYIYSSYCMGWFRQAPGKERERVSVINSDGRTSYADSVKGRFTISQDNAKNTLYLQMNSLKPEDTAMYYCAAVILPPTDGMEYSCNYPAAEYNYWGQGTQVTVSS
notes: Bi-paratopic Fc-VHH-VHH
As for B1, the binding result with human properdin [1] and in the test with mouse properdin [2] was “binds” in each case.

B2: SLN12026 (Fc-SLN7152-(G4S)3-SLN7162) (Fc fusion)
chain: [human IgG4 Fc with S228P (EU numbers) not written out]GGGGSGGGSSGGGGSDVQLVESGGGSVQVGGSLRLSCVDTSYTYTHYCMGWFRQAPGKEREGVAVMTTDGWTRYADSVKGRFIISKDNAKNTLYLQMNSLKLEDTAMYYCATNPWDSCTTGISTPSTFRTWGQGTQVTVSSGGGGSGGGGSGGGGSQVQLVESGGGSVQSGGSLRLSCVDSGYTYGHYCMGWFRQAPGKEREGVAAIRRDGVTRYADSVKGRFTISLDNAKSTLYLQMNSLKAEDTAMYYCATQRDCGISGLLWQSSVGYWGQGTQVTVSS
notes: Bi-paratopic Fc-VHH-VHH
For the molecule B2, the binding result with human properdin [1] and in the test with mouse properdin [2] was “binds” each time.

B3: SLN12021 (Fc-SLN7150-(G4S)3-SLN7155) (Fc fusion)
chain: [human IgG4 Fc with S228P (EU numbers) not written out]GGGGSGGGSSGGGGSHVQLVESGGGSVQAGGSLRLSCEAFEYYYCMGWFRQAPGKEREGVASFDTSDGSKYYADSVKGRFTISKDIAKNTLYLEMNILQAEDTAMYYCAARPFYVGGTCLPRLTDFSIWGQGTQVTVSSGGGGSGGGGSGGGGSKVQLVESGGGSVQAGGSLRLSCAASGYTYSIGCMGWFRQAPGKEREGVAAIDSDGSTSYADSVKGRFTISKHNAKNTLYLQMDSLKPEDTAMYYCAADVHPIGHPVAGPHLKSADFGYWGQGTQVTVSS
notes: Bi-paratopic Fc-VHH-VHH
With B3, the binding result with human properdin [1] and with mouse properdin [2] was “binds” each time.

B4: SLN12061 (Fc-SLN7150-(G4S)3-SLN12036) (Fc fusion)
chain: [human IgG4 Fc with S228P (EU numbers) not written out]GGGGSGGGSSGGGGSHVQLVESGGGSVQAGGSLRLSCEAFEYYYCMGWFRQAPGKEREGVASFDTSDGSKYYADSVKGRFTISKDIAKNTLYLEMNILQAEDTAMYYCAARPFYVGGTCLPRLTDFSIWGQGTQVTVSSGGGGSGGGGSGGGGSHVQLVESGGGSVQAGGSLRLSCAHPEYTSSSYCMAWIRQAPGKEREGVAAIDTDGSTSYTDSVKGRFTISKDNAKNTLYLQMNNLKPEDTAMYYCAAAPWLLAYGDYCVTRPDFGEWGQGTQVTVSS
notes: Bi-paratopic Fc-VHH-VHH
Take B4: the binding result with human properdin [1] and with mouse properdin [2] was “binds” in each case.

B5: SLN12060 (Fc-SLN12036-(G4S)3-SLN7162) (Fc fusion)
chain: [human IgG4 Fc with S228P (EU numbers) not written out]GGGGSGGGSSGGGGSHVQLVESGGGSVQAGGSLRLSCAHPEYTSSSYCMAWIRQAPGKEREGVAAIDTDGSTSYTDSVKGRFTISKDNAKNTLYLQMNNLKPEDTAMYYCAAAPWLLAYGDYCVTRPDFGEWGQGTQVTVSSGGGGSGGGGSGGGGSQVQLVESGGGSVQSGGSLRLSCVDSGYTYGHYCMGWFRQAPGKEREGVAAIRRDGVTRYADSVKGRFTISLDNAKSTLYLQMNSLKAEDTAMYYCATQRDCGISGLLWQSSVGYWGQGTQVTVSS
notes: Bi-paratopic Fc-VHH-VHH
B5: the binding result with human properdin [1] and with mouse properdin [2] was “binds” each time.

B6: SLN12022 (Fc-SLN7150-(G4S)3-SLN7160) (Fc fusion)
chain: [human IgG4 Fc with S228P (EU numbers) not written out]GGGGSGGGSSGGGGSHVQLVESGGGSVQAGGSLRLSCEAFEYYYCMGWFRQAPGKEREGVASFDTSDGSKYYADSVKGRFTISKDIAKNTLYLEMNILQAEDTAMYYCAARPFYVGGTCLPRLTDFSIWGQGTQVTVSSGGGGSGGGGSGGGGSHVQLVESGGGSVQSGGSLRLSCAASAYIYSSYCMGWFRQAPGKERERVSVINSDGRTSYADSVKGRFTISQDNAKNTLYLQMNSLKPEDTAMYYCAAVILPPTDGMEYSCNYPAAEYNYWGQGTQVTVSS
notes: Bi-paratopic Fc-VHH-VHH
Consider B6, for which the binding result with human properdin [1] and in the test with mouse properdin [2] was “binds” each time.

B7: SLN12059 (Fc-SLN12036-(G4S)3-SLN7160) (Fc fusion)
chain: [human IgG4 Fc with S228P (EU numbers) not written out]GGGGSGGGSSGGGGSHVQLVESGGGSVQAGGSLRLSCAHPEYTSSSYCMAWIRQAPGKEREGVAAIDTDGSTSYTDSVKGRFTISKDNAKNTLYLQMNNLKPEDTAMYYCAAAPWLLAYGDYCVTRPDFGEWGQGTQVTVSSGGGGSGGGGSGGGGSHVQLVESGGGSVQSGGSLRLSCAASAYIYSSYCMGWFRQAPGKERERVSVINSDGRTSYADSVKGRFTISQDNAKNTLYLQMNSLKPEDTAMYYCAAVILPPTDGMEYSCNYPAAEYNYWGQGTQVTVSS
notes: Bi-paratopic Fc-VHH-VHH
Consider B7, for which the binding result with human properdin [1] and in the test with mouse properdin [2] was “binds” each time.

B8: SLN12058 (Fc-SLN12036-(G4S)3-SLN7155) (Fc fusion)
chain: [human IgG4 Fc with S228P (EU numbers) not written out]GGGGSGGGSSGGGGSHVQLVESGGGSVQAGGSLRLSCAHPEYTSSSYCMAWIRQAPGKEREGVAAIDTDGSTSYTDSVKGRFTISKDNAKNTLYLQMNNLKPEDTAMYYCAAAPWLLAYGDYCVTRPDFGEWGQGTQVTVSSGGGGSGGGGSGGGGSKVQLVESGGGSVQAGGSLRLSCAASGYTYSIGCMGWFRQAPGKEREGVAAIDSDGSTSYADSVKGRFTISKHNAKNTLYLQMDSLKPEDTAMYYCAADVHPIGHPVAGPHLKSADFGYWGQGTQVTVSS
notes: Bi-paratopic Fc-VHH-VHH
B8: the binding result with human properdin [1] and in the test with mouse properdin [2] was “binds” each time.

B9: SLN6073 VEGF inhibiting protein, as used in Example 3.10 (Fc fusion)
chain: EVQLVESGGGLVQPGGSLRLSCAASVYTSSTYYMAWFRQAPGKGREGVAAAYAGGGGTVYADSVKGRFTISQDNSKNTLYLQMNSLRAEDTAVYYCAARMSRLLGMAPLLPEHYDSWGQGTLVTVSSGGGGSGGGGSGGGGSEVQLVESGGGLVQPGGSLRLSCAASRDAYFNNYMAWFRQAPGKGLEGVSSIATNTGNDYYADSVKGRFTISRDNSKNTIYLQMNSLRAEDTAVYYCAAGWRGGSFWTPSKYSYWGQGTLVTVSS[human IgG4 Fc with S228P (EU numbers) not written out]
notes: G4Fc fused to the C-terminus
For the molecule B9, the binding result with human properdin [3] and with mouse properdin [4] was “no binding (tested: starting from 50 nM)” each time.

B10: SLN12024 (Fc-SLN7152-(G4S)3-SLN7155) (Fc fusion)
chain: [human IgG4 Fc with S228P (EU numbers) not written out]GGGGSGGGSSGGGGSDVQLVESGGGSVQVGGSLRLSCVDTSYTYTHYCMGWFRQAPGKEREGVAVMTTDGWTRYADSVKGRFIISKDNAKNTLYLQMNSLKLEDTAMYYCATNPWDSCTTGISTPSTFRTWGQGTQVTVSSGGGGSGGGGSGGGGSKVQLVESGGGSVQAGGSLRLSCAASGYTYSIGCMGWFRQAPGKEREGVAAIDSDGSTSYADSVKGRFTISKHNAKNTLYLQMDSLKPEDTAMYYCAADVHPIGHPVAGPHLKSADFGYWGQGTQVTVSS
notes: Bi-paratopic Fc-VHH-VHH
Turning to B10, the binding result with human properdin [1] and with mouse properdin [2] was “binds” each time.

B11: SLN12023 (Fc-SLN7150-(G4S)3-SLN7162) (Fc fusion)
chain: [human IgG4 Fc with S228P (EU numbers) not written out]GGGGSGGGSSGGGGSHVQLVESGGGSVQAGGSLRLSCEAFEYYYCMGWFRQAPGKEREGVASFDTSDGSKYYADSVKGRFTISKDIAKNTLYLEMNILQAEDTAMYYCAARPFYVGGTCLPRLTDFSIWGQGTQVTVSSGGGGSGGGGSGGGGSQVQLVESGGGSVQSGGSLRLSCVDSGYTYGHYCMGWFRQAPGKEREGVAAIRRDGVTRYADSVKGRFTISLDNAKSTLYLQMNSLKAEDTAMYYCATQRDCGISGLLWQSSVGYWGQGTQVTVSS
notes: Bi-paratopic Fc-VHH-VHH
Take B11: the binding result with human properdin [1] and with mouse properdin [2] was “binds” throughout.
